According to the supplement of paper PMC2702839:
Where a name gives a salt, the structure may show the parent alone. Some of the results follow.

Test system: Schistosoma mansoni schistosomula
Assay: phenotypic hit in primary schistosomula screen (any phenotype vs DMSO control) (binary (1 = hit, 0 = no phenotype)); higher = active (phenotype induced)
Conditions: 1 µM; time (d): 7

Phenotypic hit, inactive:
COc1c(Cl)c(C)c2c(c1Cl)OC(=O)c1c(C)c(Cl)c(OC)c(Cl)c1O2 [diploicin methyl ether] 0
COc1ccc2cc3[n+](cc2c1OC)CCc1cc2c(cc1-3)OCO2 [berberine chloride] 0
COc1ccc2c(c1)CC[C@@H]1[C@@H]2CC[C@]2(C)[C@@H](O)[C@H](O)C[C@@H]12 [estriol methyl ether] 0
CC1(C)C2CC(=O)[C@]3(C)C(CC[C@@]4(C)[C@H](c5ccoc5)OC(=O)C5OC543)[C@@]2(C)C(=O)[C@H]2O[C@H]21 (stereo partly drawn) [epoxy (2,3alpha)-7-deacetoxy-7-oxodihydroisogedunin] 0
CC(C)=CC1C(C(=O)O)C1(C)C (centres undefined) [chrysanthemic acid] 0
COC(=O)C[C@H]1C(C)(C)C(=O)[C@@H]2CC3C4=CC(=O)O[C@@H](c5ccoc5)[C@]4(C)CC[C@@H]3[C@@]1(C)C2=O (some centres undefined) [carapin] 0
OCC(S)CS (centres undefined) [dimercaptopropanol] 0
Oc1ccc2c(c1)O[C@H](c1ccc(O)c(O)c1)[C@@H](O)C2 [fisetinidol] 0
O=C(O)/C=C(\CC(=O)O)C(=O)O [aconitic acid] 0
Cc1c(C)c2c(c(C)c1O)CCC(C)(CCCC(C)CCCC(C)CCCC(C)C)O2 (stereo not drawn) [alpha-tochopherol] 0
CC(=O)O[C@]1(C(C)=O)CC[C@H]2[C@@H]3C=C(C)C4=CC(=O)CC[C@]4(C)[C@H]3CC[C@@]21C [megestrol acetate] 0
CC(=O)OC1CC(OC(C)=O)C2(C)C(CC(OC(C)=O)C3(C)C2CCC2(C)C(c4ccoc4)OC(=O)C4OC423)C1(C)C (centres undefined) [7-epikhivorin] 0
COc1cc(O)c(C(=O)c2ccccc2)cc1O [cearoin] 0
OCC(O)C(O)C(O)CO (centres undefined) [adonitol/arabitol] 0
C=C1CCC(=O)C(C)CCC2C1CC2(C)C (centres undefined) [dihydrocaryophyllen-5-one] 0
O=c1oc2ccccc2cc1O [3-hydroxycoumarin] 0
COc1cccc(/C=C/C(=O)O)c1C(C)C [2-isopropyl-3-methoxycinnamic acid] 0
O=C1OC(=O)[C@H]2[C@@H]1[C@@H]1CC[C@H]2O1 [norcantharidin] 0
O=c1[nH]c2cc(Cl)c(Cl)cc2[nH]c1=O [6,7-Dichloroquinoxaline-2,3-dione] 0
CC(C)NC(=N)NC(=N)Nc1ccc(Cl)cc1 [chlorguanide hydrochloride] 0
C[C@]12CCC3c4ccc(OS(=O)(=O)O)cc4CCC3C1CC[C@H]2O (some centres undefined) [estradiol-3-sulfate, sodium salt] 0
CCCC(=O)O[C@]1(C(=O)CO)CC[C@H]2[C@@H]3CCC4=CC(=O)CC[C@]4(C)[C@H]3[C@@H](O)C[C@@]21C [hydrocortisone butyrate] 0
CC1(C)S[C@@H]2[C@H](NC(=O)COc3ccccc3)C(=O)N2[C@H]1C(=O)O [penicillin v potassium] 0
COc1ccc2c3c1O[C@H]1C[C@@H](O)C=C[C@@]31CCN(C)C2 [galanthamine hydrobromide] 0
O=c1[nH]c(=O)n([C@H]2C[C@H](O)[C@@H](CO)O2)cc1C(F)(F)F [trifluridine] 0
CN(C)c1nc(N)c(C(=O)N=C(N)N)nc1Cl [n,n-dimethylamiloride] 0
Cc1nnc(SCC2=C(C(=O)O)N3C(=O)[C@@H](NC(=O)Cn4cnnn4)[C@H]3SC2)s1 [cefazolin sodium] 0
COc1cc2c(cc1OC)[C@@H]1C(=O)c3ccc4c(c3O[C@@H]1CO2)C=CC(C)(C)O4 [deguelin] 0
S=c1[nH]cnc2nc[nH]c12 [mercaptopurine] 0
C[C@H]1O[C@@H](O[C@H]2[C@@H](O)C[C@H](O[C@H]3[C@@H](O)C[C@H](O[C@H]4CC[C@@]5(C)[C@H](CC[C@@H]6[C@@H]5CC[C@]5(C)[C@@H](C7=CC(=O)OC7)CC[C@]65O)C4)O[C@@H]3C)O[C@@H]2C)C[C@H](O)[C@@H]1O [digitoxin] 0
CCCCCCCCNC(C)C(O)c1ccc(SC(C)C)cc1 (centres undefined) [suloctidil] 0
CC(=O)/C=C\[C@@H]1[C@@]2(C)CCCC(C)(C)C2CC[C@@]1(C)O (some centres undefined) [8-hydroxy-15,16-bisnor-11-labden-13-one] 0
CC(C)[C@@H]1CC[C@@H](C)CC1=O [menthone] 0
CC(C)C1COc2cc3oc(=O)ccc3cc2O1 (centres undefined) [dihydro-obliquin] 0
CC1=CC2C(CC1=O)C(C)=CCC2C(C)C (centres undefined) [muurolladie-3-one] 0
CN(Cc1ccc(C(C)(C)C)cc1)Cc1cccc2ccccc12 [butenafine hydrochloride] 0
NCCCCN [putrescine dihydrochloride] 0
O=C1N=C(O)NC1(c1ccccc1)c1ccccc1 [Phenytoin sodium] 0
COc1cc2ccc(=O)oc2cc1O [scopoletin] 0
COc1cc(NS(=O)(=O)c2ccc(N)cc2)nc(OC)n1 [sulfadimethoxine] 0
Cc1cccc(Nc2ccncc2S(=O)(=O)NC(=O)NC(C)C)c1 [torsemide] 0
CC(=O)O[C@@H]1CC[C@@]2(C)C(C[C@@H](OC(C)=O)[C@@]3(C)C4=CC(=O)O[C@@H](c5ccoc5)[C@]4(C)CCC23)C1(C)C (stereo partly drawn) [3alpha-acetoxydihydrodeoxygedunin] 0
Cc1cc(O)c(C)c2c1C(=O)Oc1c(C)c(O)c(C(=O)O)c(C)c1O2 [hypoprotocetraric acid] 0
C=C(C)[C@H]1COc2cc3oc(=O)ccc3cc2O1 [obliquin] 0
